PubChem BioAssay AID1508623 (National Center for Advancing Translational Sciences (NCATS), 2021)
About 450 (0.94%) of roughly 48,000 compounds were called active. About 19% were inconclusive and are not listed. The call rests on the fitted dose curve; in most records, active means well fitted inhibition curve with a large enough effect; inconclusive means small, poorly fitted or top-dose-only effect; inactive means no such curve, though single readings can be large or run the other way. Some of the results follow.

Test: Primary qHTS for Identification of Small Molecule Inhibitors of Huntingtin Promoter Activity; further: nearly all actives have a fitted effect of over 50% in size
Settings: HEK293 HTT promoter firefly luciferase reporter (activity 0% = vehicle and -100% = no light), 24 h; series mostly up to 57.5 µM; activity change, negative = inhibition: at the top concentration
Outline: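 HEK293 cells carrying firefly luciferase reporters were seeded at 2,500 per well in Opti-MEM and cultured for 24 h. They were then treated with compounds at up to 57.5 uM final for 24 h at 37 degrees C before Dual-Glo luminescence readout.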

Activity change, negative = inhibition, inactive:
CO/N=C1\CN(c2nc3c(cc2F)c(=O)c(C(=O)O)cn3C2CC2)CC1CN (configuration not stated) 0.589%, COc1ccc(CCNC(=O)CSc2nnnn2-c2cccc(C(C)=O)c2)cc1OC -2.38%, CCOC(=O)c1ccc(NC(=O)c2csnn2)cc1 50.2%, CC1CCN(S(=O)(=O)c2ccc3c(c2)N(CC(=O)NC(C)C)C(=O)CO3)CC1 -13%, COc1cccc(CNC(=O)CSc2ncc(S(=O)(=O)c3ccc(Br)cc3)c(=O)[nH]2)c1 -5.16%, COc1ccc(CNC(=O)CSc2ncc(S(=O)(=O)c3ccc(C)c(Cl)c3)c(=O)[nH]2)cc1 -10.6%, CC1CCN(S(=O)(=O)c2ccc3c(c2)CCN3C(=O)Nc2ccc(Br)cc2)CC1 11.6%, Cc1ccccc1C(=O)N1CCN(CCc2ccccn2)CC1 -10.6%, Cc1c(C(=O)Nc2ccc(C(C)C)cc2)sc2nc[nH]c(=O)c12 37.3%, CC1=C(C(=O)Nc2ccc(C)cc2C)C(c2ccc(C(=O)O)cc2)n2nc(SCc3ccccc3)nc2N1 (configuration not stated) -2.22%, CCOc1ccc(CNC(=O)CC(C)n2nc(C)cc2C)cc1OC (configuration not stated) -6.42%, Cc1ccc2c(c1)c1c(c(=O)n(-c3ccccc3)c(=O)n1CC(=O)c1ccc(F)cc1)n2C -0.848%, Cc1ccc(NC(=O)c2ccc(CN3CC(=O)N4CCCCC4C3=O)cc2)cc1 (configuration not stated) -9.04%, CCc1cccc(NC(=O)Cn2c(=O)n(-c3cccc(Cl)c3)c(=O)c3c2c2cc(C)ccc2n3C)c1 -9.96%, COc1ccc(OC)c(CNC(=O)c2cnc3c(C)cccn3c2=O)c1 9.12%, CCc1nn2c(=O)cc(COC(=O)c3ccc(NC(=O)COc4ccc(C)cc4)cc3)nc2s1 -21.7%, Cn1c(SCC(=O)N2CCCc3ccccc32)ncc(C(=O)Nc2ccccc2)c1=O -15%, CC[C@]1(O)C[C@@H]2CN(CCc3c([nH]c4ccccc34)[C@@](C(=O)OC)(c3cc4c(cc3OC)N(C)[C@H]3[C@@](O)(C(=O)OC)[C@H](OC(C)=O)[C@]5(CC)C=CCN6CC[C@]43[C@@H]65)C2)C1, Cc1ccc(C(=O)COC(=O)C(Cc2c[nH]c3ccccc23)NC(=O)c2ccc(C(C)(C)C)cc2)cc1 (configuration not stated) -11.7%, CSc1ccc(Cn2nnc(C(=O)Nc3ccc(C)cc3Cl)c2N)cc1 4.5%, Cc1cc(C)cc(NC(=O)CSc2nc(=O)n(Cc3ccccn3)c3c2CCC3)c1 3.13%, CCOC(=O)C(C)Sc1nc(-c2ccccc2Cl)cc(-c2ccccc2)c1C#N (configuration not stated) -24.2%, Cc1ccc2[nH]c(=O)c(CN(C(=O)c3cccc(Cl)c3)C(C)(C)C)cc2c1 -17.1%, Cc1ccccc1C(=O)Nc1cccc(C(=O)OCc2cc(=O)n3ccsc3n2)c1 -1.4%, Cc1cccc(Oc2nc3c(c(=O)n(C)c(=O)n3C)n2Cc2ccccc2)c1C -1.22%, Cc1cccc(C)c1OCc1cc(=O)n2c3c(sc2n1)CCCC3 -2.98%, Cc1cc(C)cc(NC(=O)Nc2nnc(N(C)C3CCCCC3)s2)c1 -13.7%, COc1ccccc1-c1noc(CCCC(=O)NCc2ccco2)n1 -12.9%, CCOc1ccc(CCNc2nc3ccccc3n3c(C)nnc23)cc1OCC -11.1%, COc1cc(NC(=O)Cn2c(=O)n(CC3CCCO3)c(=O)c3ccccc32)cc(OC)c1 (configuration not stated) -4.98%, COc1ccc(C(=O)Nc2nnc(C(C)C)s2)cc1OC 72.6%, COc1ccc2sc(N(Cc3cccnc3)C(=O)COc3ccccc3)nc2c1 -16.5%, Cc1ccc(NC(=O)c2cc3nc(-c4ccccc4)cc(-c4ccccc4)n3n2)cc1 4.02%, CCn1cnc2c(=O)oc3ccc(S(=O)(=O)Nc4ccc(OC)cc4)cc3c21 -5.44%, COc1ccc(CCNC(=O)c2ccc(Cn3c(=O)c4ccccc4n(Cc4cccc(C)c4)c3=O)cc2)cc1OC -7.01%, CCOCCCn1c(=N)c(C(=O)NC2CCCC2)cc2c(=O)n3cc(C)ccc3nc21 1.68%, COc1ccccc1Cc1nc2ccccc2nc1SCC(=O)Nc1cc(Cl)ccc1OC -9.76%, CCOC(=O)c1c(S(=O)(=O)N2CCC(C(=O)Nc3ccc(C)cc3C)CC2)c(C)n(C)c1C -8.6%, Cc1cc(C)cc(NC(=O)c2cnc3sc(N4CCCC4)nn3c2=O)c1 -23.1%, COCCNC(=O)CSc1nc(-c2ccccc2)[nH]c1-c1ccc(OC)cc1 -10.7%, C[C@@H]1CC[C@@]2(OC1)OC1CC3C4CC=C5CC(O)CCC5(C)C4CCC3(C)C1[C@@H]2C (some centres not stated) -7.14%, CCOc1ccc(NC(=O)C2CCCN(S(=O)(=O)c3c(C)noc3/C=C/N(C)C)C2)cc1 (configuration not stated) -28.1%, COc1cccc(-n2c(SCC(=O)Nc3nnc(C)s3)nc3c([nH]c4ccccc43)c2=O)c1 -6.08%, Fc1ccc2[nH]c(-c3cccs3)cc2c1 7.5%, CC(C)Cn1c(=O)c2sccc2n2c(CCCC(=O)N3CCN(c4ccc(F)cc4)CC3)nnc12 -6.7%, O=C(Nc1cccc(C(F)(F)F)c1)c1cc2nc(-c3ccc4c(c3)OCO4)cc(C(F)(F)F)n2n1 -14.3% [at 11.5 µM], Cc1ccc(-c2nc(CSc3nncn4c3cc3occc34)c(C)o2)cc1 10.2%, NCCc1nc2cccnc2n1-c1ccccc1 -2.32%, COc1ccc(C)cc1NC(=O)N1CC(C)Sc2ccccc21 (configuration not stated) -0.698%, CC(C)(C)C(O)/C=C/c1ccc2c(c1)OCO2 (configuration not stated) 6.79%, O=C(CCN1CCN2CCCC2C1)N1c2ccccc2Sc2ccc(Cl)cc21 (configuration not stated) -9.03% [at 25.2 µM], C[C@@H](C1=C(CCN(C)C)Cc2ccccc21)c1ccccn1 0.832%, Cc1ccc(OCC(=O)NCC2(N(C)C)CCCCC2)cc1C -10.5%, Cc1ccc(C)c(NC(=O)Cn2c(=O)n(-c3ccc(CC(=O)NCC4CCCO4)cc3)c(=O)c3ccccc32)c1 (configuration not stated) -2.34%, CCCCC(CC)COC(=O)c1ccccc1O (configuration not stated) -3.95%, CCCOc1ccc(C(=O)NCC2OCCc3ccccc32)cc1 (configuration not stated) 15.6%, Cc1ccc(NC(=O)c2c(C)nc3sc(C(=O)Nc4ccc(F)cc4)c(N)c3c2-c2ccc(C)o2)c(C)c1 2.33%, CC1CN(C(=O)CCC(=O)Nc2cc(F)ccc2F)c2ccccc2S1 (configuration not stated) -22%, O=C(O)c1c(O)c(-c2ccccc2)nc2ccccc12 7.27%, COc1ccc(-n2c(SCC(=O)N3CCc4ccccc43)nc3c([nH]c4ccccc43)c2=O)cc1 -7.93%, COc1ccc(C(=O)Nc2ccc3oc(-c4ccc(F)cc4Cl)nc3c2)cc1 -2.8%, CCCc1nc2ccccc2n1CC(O)COc1ccc(C(=O)OC)cc1 (configuration not stated) -10.4%, CCCn1c(=O)c2[nH]c(C34CC5CC3C[C@@H](C5)C4)nc2n(CCC)c1=O 4.41%, CCC1CCCCN1S(=O)(=O)c1ccc(C(=O)Nc2sc3c(c2C(N)=O)CCC3)cc1 (configuration not stated) -25.1%, O=C(CSc1nnc(-c2ccccc2F)o1)Nc1cccc(C(F)(F)F)c1 6.88%, COCCCN1C(=O)c2ccccc2CC1(C)C(=O)NC1CCCCC1 (configuration not stated) -14.7%, COc1ccc(C2C(C(=O)Nc3ccc(Cl)cc3)=C(C)Nc3nc(SCc4cccc(C)c4)nn32)cc1OC (configuration not stated) 1.51%, CC(C)(C)OC(=O)N1CCC(c2c(C(=O)N3CCN(c4ccccn4)CC3)cnn2-c2ccccc2)CC1 1.45%, COc1ccc(-c2nc(C)c(CCNC(=O)c3cccs3)s2)cc1OC 18.8%, COc1ccccc1CNc1cc(C)nc2nc(-c3ccc(C)cc3)nn12 -19.9%, c1ccc(-c2noc(-c3cccnc3NCc3ccco3)n2)cc1 62%, COCCNC(=O)Cn1c(=O)n(CCCCCC(=O)NCc2ccccc2Cl)c(=O)c2sccc21 -2.67%, CCN(CC)CCCNC(=O)CCCn1ncn2c(cc3occc32)c1=O -18.4%, CC(C)(C)C1CCc2c(sc3nc(-c4cc5ccccc5oc4=O)[nH]c(=O)c23)C1 (configuration not stated) 0.941%, COc1ccccc1-c1noc(-c2ccc(NC3CCCCC3)c([N+](=O)[O-])c2)n1 -8.13%, COCCCNC(=O)c1cnc2sc(N3CCCCCC3)nn2c1=O 7.49%, COc1cccc(NC(=O)CCc2nc3c(C)nn(-c4ccc(C)cc4)c3n(C)c2=O)c1 -5.95%, O=c1c(=O)n(Cc2ccc(Cl)cc2)ccn1Cc1ccc(F)cc1 1%, Cc1oc2ncn(CC(C)C)c(=O)c2c1C(=O)NCCc1ccccc1 -5.14%, Cc1ccc(-c2nc(CNC(=O)Nc3ccccc3)c(C)o2)cc1 -1.11%, COc1ccc(-c2cn3cccnc3n2)cc1NC(=O)Cc1ccccc1 3.2%, CCc1nc2cccnc2n1-c1ccc(CC(=O)Nc2c(C)cccc2C)cc1 -14.8%, Cc1cc(C)n2c(Nc3ccc(C(C)C)cc3)c(-c3ccsc3)nc2n1 4.04%, Cc1ccccc1CNC(=O)c1oc2c(c1C)-c1[nH]ncc1CC2 22%, Cc1ccc2nc(Cl)c3cc(C(=O)N4CCCCC4C)sc3c2c1 (configuration not stated) -8.16%, COc1ccc(Cl)cc1NC(=O)CN1C(=O)C(C)(C)c2cc(S(=O)(=O)N3CCCCC3)ccc21 -47.9%, O=P(O)(O)C(O)(Cc1cccnc1)P(=O)(O)O, Cc1cccc(-n2ncc(C(=O)N3CCN(c4ccc(C)cc4C)CC3)c2C2CCN(C(=O)OC(C)(C)C)CC2)c1 3.33%, Cc1cn(C)c(CC(=O)NCc2ccccc2)c1C(=O)O -9.46%, CCOc1ccc(C2c3c(oc4ccc(C)cc4c3=O)C(=O)N2CCCN2CCOCC2)cc1 (configuration not stated) -4.17%, CSc1ncc(C(=O)N2CCN(c3cccc(Cl)c3)CC2)c(C)n1 -12.8%, O=C(CCCn1c(=O)c2cccn2c2cccnc21)NCc1ccccc1Br 4.89%, CCOc1ccc(CCNC(=O)Cn2nnc(-c3ccccc3Cl)n2)cc1OCC -6.69%, Cc1c(C)n(Cc2ccc(F)cc2)c2ccc(C(=O)NCc3ccco3)cc12 -13.3%, O=C(NCCN1CCN(c2cccc(Cl)c2)CC1)Nc1ccccc1C(F)(F)F -25.8%, O=C(CSc1ncc(-c2ccccc2)[nH]1)Nc1ccc(Cl)cc1 2.48%, Cc1ccc(CNc2nc(-c3ccco3)nn2S(=O)(=O)c2ccc3ccccc3c2)cc1 52%
